Laboratory results: the supplement of paper PMC12217912
This is one part of the list. The full chains were built here from the parent and the listed change. Inactive controls read about 0.05.

B1: TEV protease; numbered along this chain (parent)
chain: MGESLFKGPRDYNPISSSICHLTNESDGHTTSLYGIGFGPFIITNKHLFRRNNGTLVVQSLHGVFKVKDTTTLQQHLVDGRDMIIIRMPKDFPPFPQKLKFREPQREERICLVTTNFQTKSMSSMVSDTSCTFPSGDGIFWKHWIQTKDGQCGSPLVSTRDGFIVGIHSASNFTNTNNYFTSVPKNFMELLTNQEAQQWVSGWRLNADSVLWGGHKVFMVKPEEPFQPVKEATQL

Variants of: B1
Experiment: raw area under fraction-flipped curve 0-4 h after induction (AUC4h, not background-subtracted), DNA-recorder readout of cleavage of the substrate (dimensionless); higher = more cleavage of the substrate by the protease variant
Conditions: temperature: 34 °C; time window: 0-4 h after rhamnose induction
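Further: Bxb1 expression induced with 0.2% (w/v) L-rhamnose at OD600 near 0.5, cultures sampled hourly, flipped fraction per protease–substrate barcode pair counted by paired-end Illumina sequencing.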

MGESLFKGPRDYNPISSSICHLTNESDGHTTSLYGIGFGPFIITNKHLFRRNNGTLVVQSLHGVFKVKDTTTLQQVLVDGRDMIIIRMPKDFPPFPQKLKFREPQREERICLVTTNFQTKSMSSMVSDTSCTFPSGDGIFWKHWIQTKDGQCGSPLVSTRDGFIVGIHSASNFTNTNNYFTSVPKNFMELLTNQEAQQWVSGWRLNADSVLWGGHKVFMVKPEEPFQPVKEATQL [H76V]
area with substrate ENLYFDS: 0.0513 | area with substrate ENLYFES: 0.036 | area with substrate ENLYFIS: 0.055 | area with substrate ENLYFMS: 0.0527 | area with substrate ENLYFPS: 0.0527 | area with substrate ENLYFWS: 0.0561

MGESLFKGPRDYNPISSSICHLTNESDGHTTSLYGIGFGPFIITNKHLFRRNNGTLVVQSLHGVFKNKDTTTLQQHLVDGRDMIIIRMPKDFPPFPQKLKFREPQREERICLVTTNFQTKSMSSMVSDTSCTFPSGDGIFWKHWIQTKDGQCGSPLVSTRDGFIVGIHSASNFTNTNNYFTSVPKNFMELLTNQEAQQWVSGWRLNADSVLWGGHKVFMVKPEEPFQPVKEATQL [V67N]
area with substrate ENLYFDS: 0.0364 | area with substrate ENLYFFS: 0.0707 | area with substrate ENLYFHS: 0.0796 | area with substrate ENLYFIS: 0.0208 | area with substrate ENLYFLS: 0.0585 | area with substrate ENLYFMS: 0.0485 | area with substrate ENLYFRS: 0.0625 | area with substrate ENLYFSS: 0.0578 | area with substrate ENLYFTS: 0.0508 | area with substrate ENLYFWS: 0.0493 | area with substrate ENLYFYS: 0.0595

MGESLFKGPRDYNPISSSICHLTNESDGHTTSLYGIGFGPFIITNKHLFRRNNGTLVVQSLHGVFKVKDTTTLQQHLVDGRDMIIIRMPKDFPPFPQKLKFREPQREERICLVTTNFQTKSMSSMVSDTSCTFPSGDGIFWKHWIQTKDGQCGSPLVSTRDGFIVGIHSASNFWNTNNYFTSVPKNFMELLTNQEAQQWVSGWRLNADSVLWGGHKVFMVKPEEPFQPVKEATQL [T174W]
area with substrate ENLYFDS: 0.0721 | area with substrate ENLYFES: 0.062 | area with substrate ENLYFFS: 0.0663 | area with substrate ENLYFHS: 0.0594 | area with substrate ENLYFIS: 0.0595 | area with substrate ENLYFKS: 0.0532 | area with substrate ENLYFLS: 0.0568 | area with substrate ENLYFMS: 0.068 | area with substrate ENLYFNS: 0.0683 | area with substrate ENLYFPS: 0.0538 | area with substrate ENLYFRS: 0.0607 | area with substrate ENLYFTS: 0.0484 | area with substrate ENLYFVS: 0.0543 | area with substrate ENLYFWS: 0.047

MGESLFKGPRDYNPISSSICHLTNESDGHTTSLYGIGFGPFIITNKHLFRRNNGTLVVQSLHGVFKVKDTTTLQQHLVDGRDMIIIRMPKDFPPFPQKLKFREPQREERICLVTTNFQTKSMSSMVSDTSCTFPSGDGIFWKHWIQTKDGQCGSPLVSTRDGFIVGIHSASNFNNTNNYFTSVPKNFMELLTNQEAQQWVSGWRLNADSVLWGGHKVFMVKPEEPFQPVKEATQL [T174N]
area with substrate ENLYFDS: 0.0564 | area with substrate ENLYFES: 0.0618 | area with substrate ENLYFFS: 0.0705 | area with substrate ENLYFGS: 0.0663 | area with substrate ENLYFHS: 0.0588 | area with substrate ENLYFKS: 0.0291 | area with substrate ENLYFMS: 0.0778 | area with substrate ENLYFNS: 0.0639 | area with substrate ENLYFPS: 0.0367 | area with substrate ENLYFRS: 0.065 | area with substrate ENLYFTS: 0.0497

MGESLFKGPRDYNPISSSICHLTNESDGHTTSLYGIGFGPFIITNKHLFRRNNGTLVVQSLHGVFKVKDTTTLQVHLVDGRDMIIIRMPKDFPPFPQKLKFREPQREERICLVTTNFQTKSMSSMVSDTSCTFPSGDGIFWKHWIQTKDGQCGSPLVSTRDGFIVGIHSASNFTNTNNYFTSVPKNFMELLTNQEAQQWVSGWRLNADSVLWGGHKVFMVKPEEPFQPVKEATQL [Q75V]
area with substrate ENLYFDS: 0.0562 | area with substrate ENLYFES: 0.0594 | area with substrate ENLYFIS: 0.0494 | area with substrate ENLYFMS: 0.0624 | area with substrate ENLYFPS: 0.0483 | area with substrate ENLYFTS: 0.071 | area with substrate ENLYFWS: 0.0744

MGESLFKGPRDYNPISSSICHLTNESDGHTTSLYGIGFGPFIITNKHLFRRNNGTLVVQSLHGVFKVKDTTTLQQHLVDGRDMIIIRMPKDFPPFPQKLKFREPQREERICLVTTNFQTKSMSSMVSDTSCTFPSGDGIFWKHWIQTKDGQCGSPLVSTRMGFIVGIHSASNFTNTNNYFTSVPKNFMELLTNQEAQQWVSGWRLNADSVLWGGHKVFMVKPEEPFQPVKEATQL [D161M]
area with substrate ENLYFDS: 0.0526 | area with substrate ENLYFES: 0.0524 | area with substrate ENLYFFS: 0.0636 | area with substrate ENLYFIS: 0.0524 | area with substrate ENLYFMS: 0.0582 | area with substrate ENLYFNS: 0.0601 | area with substrate ENLYFPS: 0.0631 | area with substrate ENLYFTS: 0.0592 | area with substrate ENLYFVS: 0.0588 | area with substrate ENLYFWS: 0.0559

MGESLFKGPRDYNPISSSICHLTNESDGHTTSLYGIGFGPFIITNKHLFRRNNGTLVVQSLHGVFKVKDTTTLQQHLVDGRDMIIIRMPKDFPPFPQKLKFREPQREERLCLVTTNFQTKSMSSMVSDTSCTFPSGDGIFWKHWIQTKDGQCGSPLVSTRDGFIVGIHSASNFTNTNNYFTSVPKNFMELLTNQEAQQWVSGWRLNADSVLWGGHKVFMVKPEEPFQPVKEATQL [I110L]
area with substrate ENLYFDS: 0.05 | area with substrate ENLYFES: 0.0542 | area with substrate ENLYFFS: 0.0718 | area with substrate ENLYFGS: 0.0578 | area with substrate ENLYFHS: 0.0778 | area with substrate ENLYFIS: 0.0546 | area with substrate ENLYFKS: 0.061 | area with substrate ENLYFLS: 0.0601 | area with substrate ENLYFMS: 0.0524 | area with substrate ENLYFNS: 0.0638 | area with substrate ENLYFPS: 0.0654 | area with substrate ENLYFRS: 0.0565 | area with substrate ENLYFTS: 0.0683 | area with substrate ENLYFYS: 0.0444

MGESLFKGPRDYNPISSSICHLTNESDGHTTSLYGIGFGPFIITNKHLFRRNNGTLVVQSLHGVFKVKDTTTLQQHLVDGRDMIIIRMPKDFPPFPQKLKFREPQREERICLRTTNFQTKSMSSMVSDTSCTFPSGDGIFWKHWIQTKDGQCGSPLVSTRDGFIVGIHSASNFTNTNNYFTSVPKNFMELLTNQEAQQWVSGWRLNADSVLWGGHKVFMVKPEEPFQPVKEATQL [V113R]
area with substrate ENLYFDS: 0.0116 | area with substrate ENLYFES: 0.0528 | area with substrate ENLYFFS: 0.0735 | area with substrate ENLYFGS: 0.0734 | area with substrate ENLYFIS: 0.0499 | area with substrate ENLYFKS: 0.0657 | area with substrate ENLYFLS: 0.0606 | area with substrate ENLYFMS: 0.0565 | area with substrate ENLYFNS: 0.0626 | area with substrate ENLYFPS: 0.0413 | area with substrate ENLYFTS: 0.0712 | area with substrate ENLYFWS: 0.0569

MGESLFKGPRDYNPISSSICHLTNESDGHTTSLYGIGFGPFIITNKHLFRRNNGTLVVQSLHGVFKVKDTTTLQQHLVDGRDMIIIRMPKDFPPKPQKLKFREPQREERICLVTTNFQTKSMSSMVSDTSCTFPSGDGIFWKHWIQTKDGQCGSPLVSTRDGFIVGIHSASNFTNTNNYFTSVPKNFMELLTNQEAQQWVSGWRLNADSVLWGGHKVFMVKPEEPFQPVKEATQL [F95K]
area with substrate ENLYFDS: 0.0682 | area with substrate ENLYFIS: 0.0438 | area with substrate ENLYFPS: 0.0542 | area with substrate ENLYFYS: 0.061
